# Out of some 43,000 compounds screened, about 200 (0.47%) were called active. Not shown: some 12% with an inconclusive outcome. Calls follow the shape of the dose curve; as a rule, active = well fitted cell-killing curve with a large enough effect; inconclusive = small, poorly fitted or top-dose-only effect, or effect the other way; inactive = flat fitted curve, though single readings scatter. This is one part of the list.
# Experiment: Cell viability qHTS assay in S16 Pmp22-F2sN cells; also: nearly all actives have a fitted effect of over 65% in size
# Details: S16 Pmp22-F2sN Schwann cells (luciferase reporters placed in the Pmp22 gene) viability, CellTiter-Glo, 24 h; series mostly up to 57.5 µM; activity change, negative = cytotoxicity: at the top concentration
# Source text: Assay Provider: Jim Inglese Ph.D. National Center for Advancing Translational Science, National Institutes of Health, Rockville, MD CMT is a heterogeneous group of neurological disorders that affect approximately 1 in 2,500 people. In particular, the most common form of CMT, CMT1A is genetically linked to the duplication of the PMP22 gene which leads to Schwann cell overexpression, thus manifesting itself as a typical case of dose-sensitive diseases. To identify small molecule compounds that can mediate the expression of PMP22 we developed a phenotypic assay screening strategy by utilizing genome editing techniques to construct Schwann cell lines containing novel reporter technology to monitor the transcriptional or translational regulation of PMP22. For high sensitivity we use a bioluminescent reporter system embedded in the 3' UTR of the PMP22 gene (S16(c9) Pmp22-F2sN) to identify compounds that inhibit gene expression. […] We can further discriminate the effect of all transcriptionally active molecules on PMP22 translation or stability with an assay that incorporates a short NLuc peptide (HiBiT) at the C-terminus of expressed PMP22 (S16(f8) PMP22-HiBiT) allowing alpha complementation and luminescence detection of membrane-associated PMP22 protein. These assays were screened against the NCATS Sytravon Library Collection. Miniaturization of these assays to 1536-well plate format for quantitative high throughput screening (qHTS) yielded rich data sets immediately from the qHTS assay (S16(c9) Pmp22-F2sN), when compared with data from a cell viability assay (Cell TiterGlo) to identify compounds that decreased the output signals through cellular toxicity to streamline the selection process of actives for subsequent characterization using the HiBiT assay (S16(f8) PMP22-HiBiT).
# Cell viability assay in S16 Pmp22-F2sN cells PROTOCOL TABLE (format as described by Inglese J, Shamu CE and Guy RK. 2007) SEQUENCE No. (e.g., 1, 2, 3, etc.); […] (e.g., Cells, Incubation, Reagent, etc.); VALUE and DESCRIPTION. 1. Cells. Add 500-1,000 cells in 4 uL in growth media (DMEM High Glucose, No Phenol Red media + 10% heat-inactivated FBS + 1% Pen/Strep supplemented media) per well into Greiner 1536-well white/solid bottom high base, TC-treated plates. 2. Compounds. Library compounds and controls added at 23nL per well, transferred by Pin Tool. 3. Incubation. Incubate plates at 37C, 5% CO2, 95% RH for 24 h. 4. Reagent. Add 3uL CellTiter-Glo per well of Greiner 1536-well plates. 5. Incubation. Incubate plates at room temperature for 15 min., protect from light. 6. Detector. FLuc luminescence measured using CCD-based camera (Viewlux). NOTES (numbers refer to Sequence numbers above; values are from representative experiments) 6. Luminescence Read: Clear filter; Exposure = 1 sec, Gain = High, Speed = Slow, Binning = 2X REFERENCES: 1. Inglese J, Shamu CE and Guy RK, Reporting data from high throughput screening of small molecule libraries, Nature Chemical Biology, 2007, 3(8): 438-441. doi.org/10.1038/nchembio0807-438 2. Yasgar A, Shinn P, Jadhav A, Auld DS, Michael S, Zheng W, Austin CP, Inglese J and Simeonov A, Compound Management for Quantitative High-Throughput Screening. J. Assoc. Lab. Auto., 2008, 13: 79-89. doi: 10.1016/j.jala.2007.12.004
# % is scaled to controls: 0 for no effect and ±100 for the full control effect.
row,Compound,"activity change, negative = cytotoxicity"
1,CCCN1CCN(CCCNC(=O)c2c(C)nn(-c3ccc(F)cc3)c2-n2cccc2)CC1,inactive: 27.3%
2,Cc1nnc(N2CCCC(C(=O)NCCc3ccccc3)C2)c2nn(-c3ccccc3)c(C)c12 (configuration not stated),inactive: 1.96%
3,CCOC(=O)Cn1c(=O)oc2cc(S(=O)(=O)N3CCN(c4cc(C)ccc4C)CC3)ccc21,inactive: -9.93%
4,COCCN1CCN(Cc2ccc(C(=O)NC(C)C)cc2)C(=O)C1=O,inactive: 0.412%
5,CCCCn1c(SCC(=O)NCc2ccc(C)cc2)nc2c(sc3ccccc32)c1=O,inactive: 0.809%
6,COc1ccc(CNC(=O)C(C)n2c(=O)cc(C)c3c(C)nn(-c4ccccc4)c32)cc1 (configuration not stated),inactive: -1.5%
7,CCC1CN(C(=O)C2CCN(S(=O)(=O)c3c(C)noc3/C=C/c3ccccc3F)CC2)c2cc(C)ccc2O1 (configuration not stated),inactive: -4.57%
8,COc1ccc(C2c3cccn3CCN2S(=O)(=O)c2ccc([N+](=O)[O-])cc2)cc1 (configuration not stated),inactive: 8.96%
9,COc1ccc(C2CC(=O)N(CC(=O)Nc3cccc(C)c3C)c3ccccc3S2)cc1OC (configuration not stated),inactive: -5.68%
10,Cc1ccc(C(=O)N2CCC(C(N)=O)CC2)cc1NC(=O)c1nsc2ccccc12,inactive: -0.0219%
11,COc1ccccc1CNC(=O)CCCn1c(=O)c2ccccc2n(Cc2ccc(C)cc2)c1=O,inactive: 11%
12,COc1ccc(CN2CCCN(CC(=O)Nc3ccc4c(c3)OCCO4)S2(=O)=O)cc1,inactive: -4.41%
13,Cc1ccc(-c2noc(-c3nnn(CC(=O)Nc4cc(Cl)ccc4C)c3N)n2)cc1,inactive: 2.35%
14,Cc1ccc(CSc2nc3cccnc3n2Cc2ccc(C(=O)NCCc3cccs3)cc2)cc1,inactive: -20.5%
15,Cc1nn(C)c2c1c(C(F)(F)F)cc(=O)n2CC(=O)N1CCC(C)CC1,inactive: 9.28%
16,CC1CCN(S(=O)(=O)c2cc(C(=O)N3CCN(c4ccccc4F)CC3)n(C)c2)CC1,inactive: 21.4%
17,COc1ccc(N(CC(=O)NCCc2ccc(Cl)cc2)S(=O)(=O)c2c(C)nn(C)c2C)cc1,inactive: 14.1%
18,Cc1ccc(Sc2ccc(N3CCCC(C(=O)Nc4ccc(F)cc4F)C3)nn2)cc1 (configuration not stated),inactive: -6.09%
19,CCOC(=O)C1CCN(C(=O)c2nn(-c3ccc(OC)cc3)c(=O)c3c2c2ccccc2n3C)CC1,inactive: -6.64%
20,COc1ccc(C(=O)N2CCC(C(=O)Nc3ccccc3Cl)CC2)cc1,inactive: 12.2%
21,CCc1ccccc1NC(=O)c1cc(S(=O)(=O)NC2CCCC2)ccc1F,inactive: -1.42%
22,COc1ccc(NC(=O)c2ccco2)cc1NC(=O)COc1ccccc1Cl,inactive: 7.49%
23,Cc1ccc(C(=O)N/C(=C\c2cn(S(=O)(=O)N(C)C)c3ccccc23)C(=O)NCCCn2ccnc2)cc1,inactive: 0.0561%
24,COc1ccc(-n2nc(C(=O)N3CCN(c4cccc(C)c4)C(C)C3)c3c4ccccc4n(C)c3c2=O)cc1 (configuration not stated),inactive: 13.2%

row,Compound,"activity change, negative = cytotoxicity"
1,CCCn1ccc2c(OCC(=O)Nc3ccc(F)cc3F)cccc2c1=O,inactive: 3.05%
2,CCn1cc(C(=O)NC(C)c2ccccc2)c(=O)c2cc(S(=O)(=O)N3CCc4ccccc4C3)ccc21 (configuration not stated),inactive: -3.3%
3,Cc1ccc(-n2nc(C)c3nc(CCC(=O)Nc4ccc(F)cc4)c(=O)n(C)c32)cc1,inactive: -1.86%
4,CCOc1ccccc1N(C)C(=O)NCc1noc2ccccc12,inactive: -28.8%
5,O=C(NCCc1ccc(Cl)cc1)c1cccn1-c1nnc(N2CCCC2)s1,inactive: 3.37%
6,COc1ccc(C(=O)c2cn(CC(=O)Nc3ccc4c(c3)OCO4)c3ccc(OC)cc3c2=O)cc1,inactive: 0.102%
7,Cc1ccc(NC(=O)Cn2cc(S(=O)(=O)N3CCCC3)c(S(=O)(=O)N3CCCC3)c2)c(C)c1,inactive: -2.9%
8,COc1ccc(OC(C)C(=O)NCc2nc(-c3ccc(Cl)cc3)no2)cc1 (configuration not stated),inactive: -21.8%
9,COc1ccc(NC(=O)CNS(=O)(=O)c2cccs2)c(OC)c1,inactive: -3.67%
10,CCC(C(=O)NCc1ccccc1)n1ncn2c(cc3occc32)c1=O (configuration not stated),inactive: 3.35%
11,CCOC(=O)c1ccc2ncc(C(=O)OCC)c(Nc3ccc(C)c(Br)c3)c2c1,inactive: -9.58%
12,Cc1cccc(C(=O)Nc2cccc(C(=O)OCc3cc(=O)n4ccsc4n3)c2)c1,inactive: 1.98%
13,COc1ccc(Br)cc1CNC(=O)CN1C(=O)CSc2ccc(S(=O)(=O)N3CCOCC3)cc21,inactive: 1.31%
14,Cc1ccc(NC(=O)c2cc3c(=O)n(Cc4cccnc4)ccc3nc2C)cc1F,inactive: 8.08%
15,COc1ccc(OC)c(CNC(=O)c2cccc(NC(=O)N3CCSc4ncccc43)c2)c1,inactive: 3.62%
16,O=c1c2oc3ccccc3c2n(Cc2cccc(C(F)(F)F)c2)c(=O)n1Cc1ccc2c(c1)OCO2,inactive: -0.309%
17,COc1cccc(CNC(=O)CN2C(=O)CCn3nc(-c4cn(C)c5ccccc45)cc32)c1OC,inactive: -10.2%
18,COc1cc(OC)cc(C(=O)Nc2ccc(S(=O)(=O)Nc3onc(C)c3C)cc2)c1,inactive: 6.76%
19,CCOC(=O)c1c(C)[nH]c(CCC(=O)Nc2cc(C)cc(C)c2)c1C,inactive: -29%
20,Cc1ccc(-n2c3c(cc(-c4nc(-c5ccc(Cl)cc5)cs4)c2=O)C(=O)CC(C)(C)C3)cc1,inactive: 10%
21,O=C(NCCc1ccccc1)c1ccc(CSc2nc3ccncc3n2Cc2ccccc2)cc1,inactive: -6.73%
22,Cc1ccc(NC(=O)CSc2nc(C)cc(C)c2C(=O)Nc2cccc(C)c2)cc1,inactive: 8.17%
23,COc1ccc(NC(=O)Cn2ncc3c([nH]c4ccccc43)c2=O)cc1Cl,inactive: 4.45%
